About 16,000 (7.3%) of roughly 220,000 compounds were called active. The inconclusive results got no clear call from the source; some entries with a clear call stand among them for comparison. The call rests on the fitted dose curve; in most records, active means well fitted inhibition curve with a large enough effect (not every such curve was filed as active); inconclusive means small, poorly fitted or top-dose-only effect, or another doubt; inactive means no such curve, though single readings can be large or run the other way. No potency is given beside an inconclusive call; the fits are too rough.
Target: Aldehyde dehydrogenase 1A1 (Homo sapiens) (UniProt P00352)
Chain of UniProt P00352 (P00352 whole entry, looked up): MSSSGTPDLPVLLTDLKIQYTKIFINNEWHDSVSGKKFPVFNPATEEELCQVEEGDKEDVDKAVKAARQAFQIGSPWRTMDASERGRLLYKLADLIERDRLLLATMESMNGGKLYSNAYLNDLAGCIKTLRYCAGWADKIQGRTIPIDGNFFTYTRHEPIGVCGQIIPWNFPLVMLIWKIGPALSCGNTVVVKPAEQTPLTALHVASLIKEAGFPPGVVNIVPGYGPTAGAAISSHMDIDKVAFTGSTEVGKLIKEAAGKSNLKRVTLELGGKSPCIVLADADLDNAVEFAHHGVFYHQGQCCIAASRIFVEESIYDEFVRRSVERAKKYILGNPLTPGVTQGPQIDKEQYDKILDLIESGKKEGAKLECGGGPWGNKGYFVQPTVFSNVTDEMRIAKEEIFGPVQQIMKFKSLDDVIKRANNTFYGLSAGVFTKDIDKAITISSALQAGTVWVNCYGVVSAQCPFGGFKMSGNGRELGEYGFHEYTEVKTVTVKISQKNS
Experiment: qHTS Assay for Inhibitors of Aldehyde Dehydrogenase 1 (ALDH1A1);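 on activity, negative = inhibition: plate controls were no enzyme wells and a reference inhibitor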
Conditions: Purified ALDH1A1, NADH fluorescence, propionaldehyde substrate; series mostly up to 75.3 µM
Potency means the concentration at half of the fitted maximal effect; tags describe the fitted curve by direction and shape.

Structure (SMILES)	Potency	activity, negative = inhibition
COCc1c(C(=O)OC)nnn1-c1ccc(C(F)(F)F)cc1[N+](=O)[O-]	inactive	
CCOc1ccc(NC(=S)N(CCc2c(C)[nH]c3ccc(C)cc23)Cc2ccco2)cc1	inconclusive [inhibitor, partial curve]	
CCOC(=O)c1ccc(NC(=O)CC2SCCNC2=O)cc1 (centres undefined)	active: 12.6 µM	
Cn1cc(-c2nc3cnc(Oc4ccccc4)nc3n(Cc3cccs3)c2=O)c2ccccc21	inactive	
CCOC(=O)c1c(C)[nH]c(C(=O)/C(C#N)=C/c2ccc(OCC)cc2)c1C	active: 3.16 µM	
CCOC(=O)Cc1csc(NC(=O)C(C)Oc2ccc3c(C)cc(=O)oc3c2)n1 (centres undefined)	inconclusive [inhibitor, single point]	
CCOC(=O)c1c(N)sc(N)c1C(=O)OCC	active: 1.78 µM	
COC(=O)c1ccc(/C=C/c2ccc3cccc(OC(C)=O)c3n2)cc1	inconclusive [inhibitor, single point]	
O=C(O)c1cccc(Cn2c(Cl)c(/C=N/NC(=O)c3ccccc3)sc2=O)c1	inactive	
Cc1cccn2c(=O)c(/C=N/O)c(N3CCCCC3)nc12	inconclusive [inhibitor, partial curve]	
Cn1c(SCC(=O)c2cccs2)nnc1-c1ccco1	inconclusive [inhibitor, single point]	
CCOC(=O)N1CCN(c2c(NCc3cccs3)c(=O)c2=O)CC1	inconclusive [inhibitor, partial curve]	
CCCCc1n[nH]c(=S)n1Cc1ccc(Cl)cc1	inactive	
CCOc1ccccc1N1CCN(Cc2c(C)n(C)n(-c3ccccc3)c2=O)CC1	inactive	
O=c1n(Cc2cc3c(cc2Cl)OCO3)c(=O)n2n1CC[C@H]1/C(=N\OC[C@@H](O)COCc3ccco3)[C@H]3O[C@@H]3[C@@H](O)[C@@H]12		inactive: -4.54% [at 13.5 µM]
CCn1c(C(C#N)/C(=N\S(=O)(=O)c2cccs2)c2ccccc2)nc2ccccc21 (centres undefined)	active: 10 µM	
O=C(c1ccco1)N1CCN(C(=O)c2cccc3c2C(=O)N(Cc2cccnc2)C3)CC1	inconclusive [inhibitor, single point]	
COC(=O)[C@H](C)NC(=O)NCc1ccco1	inconclusive [inhibitor, single point]	
Cc1ccc2c(c1)NC(c1cccs1)C1=C(CC(C)(C)CC1=O)N2 (centres undefined)	inactive	
COc1ccc(-c2c3c(=O)n(C)c(=O)n(C)c3cn2Cc2ccccn2)cc1	inconclusive [inhibitor, single point]	
COC(=O)c1cc2c(ccn2-c2ccc(F)cc2)n1Cc1cccc(OC)c1	inconclusive [inhibitor, single point]	
CCOC(=O)c1cnc(SCC(=O)Nc2ccccc2C(=O)OC)nc1N	inconclusive [inhibitor, partial curve]	
N#C/C(=C/c1ccc(F)cc1)c1nc(CCN2C(=O)c3ccccc3C2=O)cs1	inconclusive [inhibitor, single point]	
CC(C)NC(=O)CSc1nnc(-c2ccc(F)cc2)c2ccccc12	inactive	
Cc1ccc(C)c2nc(Cl)c(C#N)cc12	inconclusive [inhibitor, single point]	

Structure (SMILES)	Potency	activity, negative = inhibition
Cc1ccc([N+](=O)[O-])cc1N=C(c1ccc([N+](=O)[O-])cc1)N1CCOCC1	inconclusive [inhibitor, single point]	
Cc1ccc(S(=O)(=O)N(C)C)cc1NC(=S)N1CCCCC1CO (centres undefined)	inconclusive [inhibitor, single point]	
CC(C)CNc1nnnc2c1sc1nc(N3CCOCC3)c3c(c12)CC(C)(C)SC3	inconclusive [inhibitor, single point]	
CN(C)C(=O)c1ccc(-c2nc(N(C)C)c3ccccc3n2)cc1	inconclusive [inhibitor, single point]	
COc1cc2c(cc1OC)CN(Cc1ccc(OC)c(C)c1OC)CC2	inactive	
Cc1cc(C)c2c(SCc3ccc(Cl)cc3Cl)nc(N)nc2n1		inactive: -0.636% [at 13.5 µM]
Cc1ccc(C(=O)OCC(=O)NCCC2=CCCCC2)s1	inconclusive [inhibitor, single point]	
O=C(COc1ncnc2ccccc12)Nc1ccccc1[N+](=O)[O-]	inconclusive [inhibitor, partial curve, poor fit]	
Cc1cc(Cl)ccc1OCc1nc(-c2ccncc2)no1	inactive	
CCCNC(=O)c1cc(-c2ccco2)on1	inconclusive [inhibitor, single point]	
Clc1ccc(-c2cn3nc4c(nc3n2)CCCC4)cc1	inconclusive [inhibitor, single point]	
CCOC(=O)CNS(=O)(=O)c1cc(-c2nnc(Nc3ccc4c(c3)OCO4)c3ccccc23)ccc1C	inconclusive [inhibitor, single point]	
O=C(Nc1ccc2c(c1)CCC2)c1ccc(Br)s1	inactive	
Cn1cc(-c2nnc(-c3ccccc3)o2)c2ccccc21	inconclusive [inhibitor, partial curve]	
O=C(CSc1nnc(-c2ccc(OC(F)F)cc2)o1)NC(=O)NCc1ccco1	inactive	
COc1ccc(/C(C)=N/OCC(=O)Nc2nc3ccccc3s2)cc1OC	inconclusive [inhibitor, single point]	
Cc1cccc(CNc2ncncc2-c2cccnc2)c1	inactive	
CC(C)(C)c1ccc(C(=O)NCC(=O)OCN2C(=O)c3ccccc3C2=O)cc1	inconclusive [inhibitor, single point]	
N#Cc1cc(S(=O)(=O)c2ccccc2)c(N)[nH]c1=O	inconclusive [inhibitor, single point]	
CCOc1ccc(CNC2CCCc3ccccc32)cc1 (centres undefined)	inactive	
Cc1cc(C)n(C(C)n2nc(C)cc2C)n1	inactive	
COc1ccccc1C1=NNC(=Nc2cccc(S(=O)(=O)N(C)C)c2)SC1	active: 35.5 µM	
CN(C)CCSc1nc(N)c2c3c(sc2n1)COC(C)(C)C3	inactive	
Cc1ccc2nc(C)cc(C(=O)OCC(=O)c3ccc(Cl)c([N+](=O)[O-])c3)c2c1	active: 20 µM	
CCOC(=O)c1ccc(NC(=O)CSc2nnc(CNc3ccc(OC)cc3)n2C)cc1	active: 12.6 µM	

Structure (SMILES)	Potency	activity, negative = inhibition
CCOC(=O)C1=C(c2ccccc2)NC(SC)=C(C#N)C1c1cccnc1 (centres undefined)	inconclusive [inhibitor, single point]	
COc1ccc(Cn2cc(F)c(=O)n(CCC(C)C)c2=O)cc1[N+](=O)[O-]	inconclusive [inhibitor, single point]	
Cc1ccc(C(=O)COC(=O)c2ccc(-c3cnc4ccccc4n3)cc2)cc1C	inconclusive [inhibitor, single point]	
COc1ccc(OCC(=O)OCC(=O)Nc2ccc(S(=O)(=O)N3CCCCC3)cc2)cc1	active: 10 µM	
Cc1cc(C)cc(NC(=O)CN2CCN(c3ncccn3)CC2)c1	inconclusive [inhibitor, single point]	
Cc1cc2cc(CN(CCCO)S(=O)(=O)c3cccc4nsnc34)c(=O)[nH]c2cc1C	inactive	
CCN(CC)CCCN(Cc1cc2cc3c(cc2[nH]c1=O)OCO3)C(=S)Nc1ccccc1	inconclusive [inhibitor, single point]	
CS(=O)(=O)c1ccc2nc(NC(NC(=O)c3ccco3)(C(F)(F)F)C(F)(F)F)sc2c1	inactive	
Cc1ccc(N2CCN(C(=S)c3ccc(N(C)C)cc3)CC2)cc1	active: 7.94 µM	
Cc1cnc(C(=O)Nc2ccc(C(C)C)cc2)cn1	inactive	
Nc1nc2c(c(=O)[nH]1)N=C(CNc1ccc(C(=O)NC(CCC(=O)O)C(=O)O)cc1)CN2 (centres undefined)	inconclusive [inhibitor, partial curve]	
Cc1ccc(S(=O)(=O)c2nc(-c3cccs3)oc2SCC(N)=O)cc1	inconclusive [inhibitor, single point]	
O=C(CC(NS(=O)(=O)c1ccc(Cl)cc1)c1ccco1)N1CCc2ccccc21 (centres undefined)	inconclusive [inhibitor, single point]	
O=C(Oc1ccc(OC(=O)C2CCC2)cc1)C1CCC1	inactive	
O=C(NC(C(=O)c1ccccc1)N1CCCCC1)c1ccccc1 (centres undefined)	inconclusive [inhibitor, single point]	
CCCCN1C(=O)C2(NNc3ccccc3O2)c2ccccc21 (centres undefined)	active: 0.282 µM	
Cc1ccc(SCCNS(C)(=O)=O)cc1	inconclusive [inhibitor, single point]	
Cc1cccc(NC(=S)NCc2ccncc2)c1C	inactive	
O=C(COC(=O)c1ccccc1C(=O)c1ccc(Cl)c([N+](=O)[O-])c1)NC1CCCCCC1	active: 14.1 µM	
c1ccc(-c2ccc(-c3nc(-c4cccnc4)no3)cc2)cc1	inconclusive [inhibitor, partial curve]	
COc1cccc(N/C(SCc2ccccc2C)=C(/C#N)C(=O)NCc2cccs2)c1	inactive	
COc1cc(C)c(NC(=S)Nc2ccc(Cl)c(Cl)c2)cc1OC	active: 8.91 µM	
CCC(=O)N(Cc1cc(=O)[nH]c2ccccc12)c1cccc(C)c1	active: 39.8 µM	
Cc1cc(C(=O)COc2cccnc2[N+](=O)[O-])c(C)n1Cc1ccco1	inconclusive [inhibitor, single point]	
